The values below come from a collection of fitness landscapes (doi:10.1126/science.1257360).

This is one part of the list. Where only a bound is given, the exact number is not on record here.

The chains are these.
B1: PhoQ; a variant is named by its letters at X, in order, P23837 (parent)
chain: MKKLLRLFFPLSLRVRFLLATAAVVLVLSLAYGMVALIGYSVSFDKTTFRLLRGESNLFYTLAKWENNKLHVELPENIDKQSPTMTLIYDENGQLLWAQRDVPWLMKMIQPDWLKSNGFHEIEADVNDTSLLLSGDHSIQQQLQEVREDDDDAEMTHSVAVNVYPATSRMPKLTIVVVDTIPVELKSSYMVWSWFIYVLSANLLLVIPLLWVAAWWSLRPIEALAKEVRELEEHNRELLNPATTRELTSLVRNLNRLLKSERERYDKYRTTLTDLTHSLKTPLXXLQXXLRSLRSEKMSVSDAEPVMLEQISRISQQIGYYLHRASMRGGTLLSRELHPVAPLLDNLTSALNKVYQRKGVNISLDISPEISFVGEQNDFVEVMGNVLDNACKYCLEFVEISARQTDEHLYIVVEDDGPGIPLSKREVIFDRGQRVDTLRPGQGVGLAVAREITEQYEGKIVAGESMLGGARMEVIFGRQHSAPKDE

This experiment covers variants of B1. Put plainly: enrichment ratio after two sorts for PhoP signalling (ratio (wild type AVST 3.29)); higher = more functional. The following applies: with PhoP (E. coli).
Take TVKG: the enrichment ratio was at most 0.25.
RGMM: the enrichment ratio was at most 0.25.
The result for KYHA reads at most 0.25; that for QETN, at most 0.25.
Under AVSP stands at most 0.25; under ENFD, at most 0.25.
The result for NPYE reads at most 0.25.
On to WADR, for which the enrichment ratio is at most 0.25.
Take RIIY: the enrichment ratio was at most 0.25.
LEQN: the enrichment ratio is at most 0.25.
Under KVGR stands at most 0.25; under RKYY, at most 0.25.
Under RCMS stands at most 0.25; under MSFE, 9.01; under SWPW, at most 0.25.
The result for YCCT reads at most 0.25; that for SHHS, at most 0.25; that for PYRQ, at most 0.25.
For the variant TVDI, the enrichment ratio is at most 0.25.
With IMQD, the enrichment ratio is at most 0.25.
As to AIAN, the enrichment ratio is 8.45.
As for MVWS, the enrichment ratio was at most 0.25.
In the case of MVIN, the enrichment ratio was at most 0.25.
Regarding HKSK, the enrichment ratio is at most 0.25.
Under LVMF stands at most 0.25; under PQTM, at most 0.25; under NQYI, at most 0.25.
Consider PIDI, for which the enrichment ratio was at most 0.25.
On to FHVM, for which the enrichment ratio is at most 0.25.
For the variant PMAA, the enrichment ratio is at most 0.25.
The result for KYYR reads at most 0.25; that for PHEV, at most 0.25.
In the case of YSSV, the enrichment ratio amounted to 0.289.
Take GRVW: the enrichment ratio was at most 0.25.
SSCH: the enrichment ratio was 10.9.
Under MRIK stands at most 0.25.
Under ECSR stands at most 0.25; under QQRC, at most 0.25; under FQAQ, at most 0.25.
For the variant YFQE, the enrichment ratio was at most 0.25.
The result for KYIA reads at most 0.25; that for NMRV, at most 0.25; that for TSDP, at most 0.25.
On to ILWK, for which the enrichment ratio was at most 0.25.
Turning to TATK, the enrichment ratio is at most 0.25.
As for LYSP, the enrichment ratio was at most 0.25.
On to SNVI, for which the enrichment ratio worked out at 8.08.
Regarding YGQN, the enrichment ratio is at most 0.25.
As for WDLV, the enrichment ratio was at most 0.25.
As to ETKG, the enrichment ratio is at most 0.25.
For the variant ENIY, the enrichment ratio was at most 0.25.
In the case of VCCD, the enrichment ratio was at most 0.25.
Regarding NLSL, the enrichment ratio is at most 0.25.
Regarding PPDM, the enrichment ratio was at most 0.25.
Turning to SFHN, the enrichment ratio was at most 0.25.
In the case of ARDI, the enrichment ratio was at most 0.25.
As for KAYD, the enrichment ratio was at most 0.25.
As for MLIP, the enrichment ratio was at most 0.25.
For AAMF, the enrichment ratio is 7.63.
The result for TFRC reads at most 0.25; that for FDIN, at most 0.25; that for EMGE, at most 0.25.
Regarding RGIW, the enrichment ratio was at most 0.25.
Under LHME stands at most 0.25; under RNWA, at most 0.25; under RKCF, at most 0.25.
For RVSA, the enrichment ratio was at most 0.25.
The result for RPDH reads at most 0.25; that for SSWT, at most 0.25; that for NYWL, at most 0.25.
Regarding AGMI, the enrichment ratio amounted to 16.4.
On to AEQG, for which the enrichment ratio is at most 0.25.
With FPRA, the enrichment ratio is at most 0.25.
For QIYL, the enrichment ratio turned out to be 6.46.
In the case of VFHY, the enrichment ratio is at most 0.25.
Regarding HMAW, the enrichment ratio was at most 0.25.
As for VCKY, the enrichment ratio is at most 0.25.
Take EIHG: the enrichment ratio was at most 0.25.
Under VTSQ stands at most 0.25; under TSSP, at most 0.25; under ACNV, at most 0.25.
On to VHWM, for which the enrichment ratio is at most 0.25.
DNHQ: the enrichment ratio was at most 0.25.
Consider AQYW, for which the enrichment ratio is at most 0.25.
Under NLLT stands at most 0.25.
Regarding TGSY, the enrichment ratio was found to be 15.9.
As for GQTD, the enrichment ratio was at most 0.25.
With SAME, the enrichment ratio was 0.508.
Regarding DRQV, the enrichment ratio worked out at 1.36.
For MDER, the enrichment ratio was at most 0.25.
For WNCI, the enrichment ratio was at most 0.25.
The result for WAGF reads at most 0.25; that for QCAA, at most 0.25; that for AYFI, at most 0.25.
On to YHWW, for which the enrichment ratio was at most 0.25.
Take FYWM: the enrichment ratio was at most 0.25.
Under PEKV stands at most 0.25; under DLDT, at most 0.25; under DGIC, at most 0.25.
As for ELKP, the enrichment ratio was at most 0.25.
With NSNK, the enrichment ratio is at most 0.25.
For QTQR, the enrichment ratio is at most 0.25.
RSPH: the enrichment ratio is at most 0.25.
For the variant LMKR, the enrichment ratio is at most 0.25.
With NKIV, the enrichment ratio is at most 0.25.
The result for WSYW reads at most 0.25; that for NPKA, at most 0.25; that for IKSY, at most 0.25.
Under WHYS stands at most 0.25; under PCNW, at most 0.25; under YPCF, at most 0.25.
Turning to SLQE, the enrichment ratio is at most 0.25.
Under YWAE stands at most 0.25.
Turning to QKHG, the enrichment ratio is at most 0.25.
Consider QADP, for which the enrichment ratio is at most 0.25.
Consider AMNW, for which the enrichment ratio was at most 0.25.
Consider LWKR, for which the enrichment ratio was at most 0.25.
On to NHDQ, for which the enrichment ratio was at most 0.25.
Under NLHI stands at most 0.25; under EMNA, at most 0.25; under KAFV, at most 0.25.
The result for KYIC reads at most 0.25; that for GMVQ, at most 0.25.
The result for HARR reads at most 0.25.
For the variant RFAR, the enrichment ratio was at most 0.25.
Take GDQP: the enrichment ratio is at most 0.25.
For the variant IKVH, the enrichment ratio was at most 0.25.
For the variant KYSD, the enrichment ratio was at most 0.25.
For the variant PVVL, the enrichment ratio is at most 0.25.
As to SRNN, the enrichment ratio is at most 0.25.
Under NKQP stands at most 0.25; under IQAS, at most 0.25.
For NKCK, the enrichment ratio was at most 0.25.
On to NNPV, for which the enrichment ratio is at most 0.25.
For the variant NEGH, the enrichment ratio is at most 0.25.
Regarding YVFH, the enrichment ratio was at most 0.25.
On to QLIC, for which the enrichment ratio is at most 0.25.
Regarding SMFN, the enrichment ratio is at most 0.25.
DTAT: the enrichment ratio is at most 0.25.
As to NGYG, the enrichment ratio is at most 0.25.
Under KVFT stands at most 0.25.
On to GQPT, for which the enrichment ratio is at most 0.25.
Consider KNII, for which the enrichment ratio is at most 0.25.
On to VGYL, for which the enrichment ratio was at most 0.25.
Take HGHP: the enrichment ratio is at most 0.25.
With TVRM, the enrichment ratio stood at 1.11.
Take DYII: the enrichment ratio is at most 0.25.
The result for AHRM reads at most 0.25.
Take YTHH: the enrichment ratio was at most 0.25.
As for TPCH, the enrichment ratio is at most 0.25.
As for RGYC, the enrichment ratio was at most 0.25.
Take TSCE: the enrichment ratio came out at 8.23.
As to YDEI, the enrichment ratio is at most 0.25.
